Test results taken from the supplement of paper PMC4967469.
The IC50 comes from the fitted curve, where viability falls to half of the control; where the fit passes the top or lowest dose, that dose stands as a limit. AUC is the area under the same curve over the 256-fold range up to the top dose, as a fraction; the more sensitive the line, the further below 1. Drugs with an entry number were screened twice under separate entries, and the two screens often disagree.

Compound: CS(=O)(=O)N1CCN(Cc2cc3nc(-c4cccc5[nH]ncc45)nc(N4CCOCC4)c3s2)CC1 [GDC0941]
Assay: Viability of human cancer cell lines after 72 h of drug (GDSC screen)
Details: screen: GDSC drug entry 1058
Method: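 Human cancer cell lines in 384-well plates, medium with 10% serum, drug for 72 h over a 256-fold dose range (nine 2-fold or five 4-fold steps up to the top dose). Adherent lines were fixed and stained with the nucleic acid dye Syto60, suspension lines read with resazurin; signal relative to control wells, capped at 0 and 100%. One two-parameter sigmoid per drug and line, fitted in a mixed model over all curves with the slope shared within a line.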

Cell Line	AUC	IC50 [µM]
SUP-B8 (B-cell leukaemia, suspension, top dose 4 µM)	0.755	1.35
HDQ-P1 (breast, adherent, top dose 4 µM)	0.858	> 4
KYSE-410 (oesophagus, adherent, top dose 4 µM)	0.722	1.12
NY (osteosarcoma, adherent, top dose 4 µM)	0.944	> 4
DOV13 (ovary, adherent, top dose 4 µM)	0.708	1.07
BPH-1 (prostate, adherent, top dose 2 µM)	0.626	0.288
LK-2 (lung squamous cell carcinoma, adherent, top dose 4 µM)	0.971	> 4
SU-DHL-4 (B-cell lymphoma, suspension, top dose 4 µM)	0.987	> 4
EMC-BAC-2 (lung adenocarcinoma, adherent, top dose 4 µM)	0.695	0.987
OCI-AML3 (acute myeloid leukaemia, suspension, top dose 4 µM)	0.891	3.5
OAW-42 (ovary, adherent, top dose 4 µM)	0.672	0.79
RXF393 (kidney, adherent, top dose 4 µM)	0.781	2.38
D-247MG (glioma, adherent, top dose 4 µM)	0.87	> 4
NCI-H2405 (lung adenocarcinoma, adherent, top dose 4 µM)	0.935	> 4
WIL2-NS (lymphoid neoplasm, suspension, top dose 4 µM)	0.963	> 4
H-EMC-SS (chondrosarcoma, adherent, top dose 4 µM)	0.887	> 4
NALM-6 (B-cell leukaemia, suspension, top dose 4 µM)	0.461	0.2
IGR-1 (melanoma, adherent, top dose 4 µM)	0.987	> 4
SBC-1 (small cell lung carcinoma, suspension, top dose 4 µM)	0.901	> 4
BHY (head and neck, adherent, top dose 2 µM)	0.872	1.92
NCI-H2066 (small cell lung carcinoma, adherent, top dose 4 µM)	0.874	> 4
TC-71 (Ewing sarcoma, adherent, top dose 4 µM)	0.854	2.37
BHT-101 (thyroid, adherent, top dose 4 µM)	0.611	0.511
ONS-76 (medulloblastoma, adherent, top dose 4 µM)	0.976	> 4
H2595 (mesothelioma, adherent, top dose 4 µM)	0.839	> 4
A3-KAW (B-cell lymphoma, suspension, top dose 4 µM)	0.993	> 4
KYSE-450 (oesophagus, adherent, top dose 4 µM)	0.788	1.65

Cell Line	AUC	IC50 [µM]
NCI-H146 (small cell lung carcinoma, suspension, top dose 4 µM)	0.991	> 4
SW982 (soft tissue, adherent, top dose 4 µM)	0.844	2.98
OCI-LY7 (B-cell lymphoma, suspension, top dose 4 µM)	0.231	0.0556
EW-13 (Ewing sarcoma, suspension, top dose 4 µM)	0.737	1.29
COR-L279 (small cell lung carcinoma, suspension, top dose 4 µM)	0.913	> 4
LU-65 (large cell lung carcinoma, suspension, top dose 4 µM)	0.987	> 4
H3118 (head and neck, adherent, top dose 4 µM)	0.554	0.356
CML-T1 (chronic myeloid leukaemia, suspension, top dose 4 µM)	0.939	> 4
PSN1 (pancreas, adherent, top dose 4 µM)	0.893	3.44
IMR-5 (neuroblastoma, adherent, top dose 4 µM)	0.992	> 4
H2869 (mesothelioma, adherent, top dose 4 µM)	0.939	> 4
KYSE-140 (oesophagus, adherent, top dose 4 µM)	0.892	> 4
NCI-H1435 (lung adenocarcinoma, semi-adherent, top dose 4 µM)	0.943	> 4
GI-ME-N (neuroblastoma, adherent, top dose 4 µM)	0.864	> 4
SNG-M (endometrium, adherent, top dose 4 µM)	0.843	2.74
MY-M12 (leukaemia, suspension, top dose 4 µM)	0.715	1.11
NCI-H847 (small cell lung carcinoma, adherent, top dose 4 µM)	0.95	> 4
PCI-15A (head and neck, adherent, top dose 4 µM)	0.986	> 4
H2461 (mesothelioma, adherent, top dose 4 µM)	0.91	> 4
JHU-029 (head and neck, adherent, top dose 4 µM)	0.722	1.25
KYM-1 (rhabdomyosarcoma, adherent, top dose 2 µM)	0.937	> 2
Hs766T (pancreas, adherent, top dose 4 µM)	0.792	2.5
NB12 (neuroblastoma, adherent, top dose 4 µM)	0.758	1.85
SUIT-2 (pancreas, adherent, top dose 2 µM)	0.891	> 2
RVH-421 (melanoma, adherent, top dose 4 µM)	0.9	> 4
WM-115 (melanoma, adherent, top dose 4 µM)	0.689	0.965
RCH-ACV (B-cell leukaemia, suspension, top dose 4 µM)	0.238	0.0522

Cell Line	AUC	IC50 [µM]
KM-H2 (Hodgkin lymphoma, suspension, top dose 4 µM)	0.986	> 4
NCI-H1341 (small cell lung carcinoma, suspension, top dose 4 µM)	0.555	0.345
COLO-783 (melanoma, adherent, top dose 4 µM)	0.987	> 4
CPC-N (small cell lung carcinoma, suspension, top dose 4 µM)	0.792	2
NCI-H2227 (small cell lung carcinoma, semi-adherent, top dose 4 µM)	0.901	> 4
H2373 (mesothelioma, adherent, top dose 4 µM)	0.701	1.07
Mo-T (hairy cell leukaemia, suspension, top dose 4 µM)	0.487	0.23
LC-1-sq (lung squamous cell carcinoma, adherent, top dose 4 µM)	0.885	> 4
PANC-02-03 (pancreas, adherent, top dose 4 µM)	0.597	0.486
KOPN-8 (B-cell leukaemia, suspension, top dose 4 µM)	0.849	2.37
MHH-ES-1 (Ewing sarcoma, adherent, top dose 4 µM)	0.804	1.97
OACp4C (oesophagus, adherent, top dose 4 µM)	0.696	1
HCC-78 (lung adenocarcinoma, adherent, top dose 4 µM)	0.818	2.77
CAL-78 (chondrosarcoma, adherent, top dose 4 µM)	0.921	> 4
NCI-H322M (lung adenocarcinoma, suspension, top dose 4 µM)	0.934	> 4
IST-SL2 (small cell lung carcinoma, suspension, top dose 4 µM)	0.731	1.13
VM-CUB-1 (bladder, adherent, top dose 2 µM)	0.956	> 2
T47D (breast, adherent, top dose 4 µM)	0.605	0.567
YH-13 (glioma, adherent, top dose 4 µM)	0.551	0.347
KY821 (leukaemia, suspension, top dose 4 µM)	0.469	0.208
KP-1N (pancreas, adherent, top dose 4 µM)	0.9	> 4
VMRC-RCZ (kidney, adherent, top dose 4 µM)	0.889	> 4
AU565 (breast, adherent, top dose 4 µM)	0.663	0.753
RH-18 (rhabdomyosarcoma, adherent, top dose 4 µM)	0.864	> 4
COR-L321 (lung, suspension, top dose 4 µM)	0.988	> 4
ALL-PO (lymphoblastic leukaemia, suspension, top dose 4 µM)	0.513	0.272
